Reference: the BET-seq Pho4 binding data (Le et al. 2018)
Some of the results follow. Values were computed here from the reads of four pooled replicates and scatter widely.

What follows are sequences tested against T1, Pho4 (S. cerevisiae) (UniProt P07270) (assay: relative binding free energy (BET-seq); higher = weaker binding). Settings: reference: library average.
T1 sequence: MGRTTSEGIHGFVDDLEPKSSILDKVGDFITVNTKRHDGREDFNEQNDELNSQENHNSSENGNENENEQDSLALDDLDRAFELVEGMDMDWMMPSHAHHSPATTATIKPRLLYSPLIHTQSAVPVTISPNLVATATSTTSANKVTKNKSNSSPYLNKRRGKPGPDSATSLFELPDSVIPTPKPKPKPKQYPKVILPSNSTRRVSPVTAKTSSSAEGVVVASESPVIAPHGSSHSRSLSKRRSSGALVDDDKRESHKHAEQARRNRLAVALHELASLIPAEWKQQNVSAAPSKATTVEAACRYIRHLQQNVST
With TGTGGCACGTGGTACC the “relative binding free energy” value was -0.19 kcal/mol. In the case of CTTTGCACGTGGTTGC, the “relative binding free energy” value is reported as -0.08 kcal/mol. In the case of CTTGCCACGTGGAGGT, the “relative binding free energy” value is reported as -0.07 kcal/mol. With TGTGACACGTGGTCTG the “relative binding free energy” value was -0.04 kcal/mol. With ACAGGCACGTGTGGAG the “relative binding free energy” value was -0.08 kcal/mol. For TTGAACACGTGCTGGG, the “relative binding free energy” value was -0.06 kcal/mol. For CGTTTCACGTGTAATA, the “relative binding free energy” value was 0.27 kcal/mol. For TCTTACACGTGGTGGT, the “relative binding free energy” value was 0.08 kcal/mol. TAAGTCACGTGTGCTT was tested, and the “relative binding free energy” value was -0.03 kcal/mol. With TTTGGCACGTGTTTAC the “relative binding free energy” value was -0.14 kcal/mol. In the case of CTAGTCACGTGCGGTT, the “relative binding free energy” value is reported as 0.21 kcal/mol. With CTTTTCACGTGTTTCG the “relative binding free energy” value was 0.24 kcal/mol. TTTTACACGTGACGGG was tested, and the “relative binding free energy” value was 0.29 kcal/mol. With GATAGCACGTGGAGGT the “relative binding free energy” value was -0.02 kcal/mol. For CAGGGCACGTGGGGGT, the “relative binding free energy” value was -0.19 kcal/mol. TATGCCACGTGTGGTA was tested, and the “relative binding free energy” value was -0.05 kcal/mol. In the case of TTCTTCACGTGGGTTC, the “relative binding free energy” value is reported as 0.21 kcal/mol. For TAGTGCACGTGAGGGC, the “relative binding free energy” value was 0.31 kcal/mol. For TGTGTCACGTGCGCGG, the “relative binding free energy” value was -0.11 kcal/mol. For TTGATCACGTGATAAA, the “relative binding free energy” value was 0.16 kcal/mol. ATTGGCACGTGCATTA was tested, and the “relative binding free energy” value was -0.24 kcal/mol. For ATACTCACGTGGTGGG, the “relative binding free energy” value was 0.17 kcal/mol. AAGCTCACGTGGTGCG was tested, and the “relative binding free energy” value was 0.2 kcal/mol. For TGAATCACGTGGCATG, the “relative binding free energy” value was 0.08 kcal/mol. ATACTCACGTGTTTAT was tested, and the “relative binding free energy” value was 0.19 kcal/mol. In the case of GATTGCACGTGAAGAG, the “relative binding free energy” value is reported as 0.39 kcal/mol. With TGGGGCACGTGGTGAA the “relative binding free energy” value was -0.15 kcal/mol. For GTATTCACGTGTTTCG, the “relative binding free energy” value was 0.24 kcal/mol. With TAGGTCACGTGAAAAG the “relative binding free energy” value was 0.14 kcal/mol. With AAATGCACGTGGCGGC the “relative binding free energy” value was 0.08 kcal/mol. With GATTGCACGTGGACTG the “relative binding free energy” value was 0.13 kcal/mol. TGATGCACGTGTGGAG was tested, and the “relative binding free energy” value was 0.09 kcal/mol. In the case of AGCTGCACGTGGTGAG, the “relative binding free energy” value is reported as -0.08 kcal/mol. For ATCGGCACGTGGCAGG, the “relative binding free energy” value was -0.23 kcal/mol. CGTTACACGTGATTTG was tested, and the “relative binding free energy” value was 0.19 kcal/mol. With CTGGTCACGTGGTTCG the “relative binding free energy” value was 0.19 kcal/mol. TGCTCCACGTGTGGTT was tested, and the “relative binding free energy” value was 0.19 kcal/mol. For AAGGTCACGTGGCGAG, the “relative binding free energy” value was 0 kcal/mol. TGGTGCACGTGGAGAA was tested, and the “relative binding free energy” value was -0.1 kcal/mol. CTCGGCACGTGGGGGA was tested, and the “relative binding free energy” value was -0.16 kcal/mol. With TTGGCCACGTGTTTTA the “relative binding free energy” value was 0.08 kcal/mol. In the case of GTGGCCACGTGAAGTT, the “relative binding free energy” value is reported as 0.31 kcal/mol. AGTGGCACGTGCATGG was tested, and the “relative binding free energy” value was -0.21 kcal/mol. TAAGTCACGTGAAGGC was tested, and the “relative binding free energy” value was 0.37 kcal/mol. For AAGGTCACGTGATTGG, the “relative binding free energy” value was 0.29 kcal/mol. In the case of GGACGCACGTGAATGT, the “relative binding free energy” value is reported as 0.2 kcal/mol. For ATGTGCACGTGATAGT, the “relative binding free energy” value was 0.13 kcal/mol. In the case of GTTCTCACGTGCTGGG, the “relative binding free energy” value is reported as 0.25 kcal/mol. For GATACCACGTGTGTGG, the “relative binding free energy” value was -0.05 kcal/mol. With CGTAGCACGTGATGTA the “relative binding free energy” value was -0.05 kcal/mol. GACTGCACGTGGAGTG was tested, and the “relative binding free energy” value was 0.03 kcal/mol. For GAGTTCACGTGACGGT, the “relative binding free energy” value was 0.33 kcal/mol. In the case of GTAGTCACGTGTCTAG, the “relative binding free energy” value is reported as 0.1 kcal/mol. With TGTCCCACGTGTTGTT the “relative binding free energy” value was -0.07 kcal/mol. In the case of ATGATCACGTGTAGTT, the “relative binding free energy” value is reported as 0.24 kcal/mol. For CTATTCACGTGGTTGT, the “relative binding free energy” value was 0.16 kcal/mol. In the case of GCTCGCACGTGTGGGT, the “relative binding free energy” value is reported as -0.04 kcal/mol. In the case of GGGTTCACGTGGAGAG, the “relative binding free energy” value is reported as 0.36 kcal/mol. With AGATACACGTGTCGGT the “relative binding free energy” value was 0.14 kcal/mol. In the case of GGAGTCACGTGAATGT, the “relative binding free energy” value is reported as 0.46 kcal/mol. GACGGCACGTGGGATG was tested, and the “relative binding free energy” value was -0.08 kcal/mol. TGGGACACGTGGCACG was tested, and the “relative binding free energy” value was -0.05 kcal/mol. In the case of GGTATCACGTGATGTT, the “relative binding free energy” value is reported as 0.29 kcal/mol. For GATTGCACGTGCGGAT, the “relative binding free energy” value was 0 kcal/mol. AGGTTCACGTGGTATA was tested, and the “relative binding free energy” value was 0.21 kcal/mol. GGGCTCACGTGGAGGA was tested, and the “relative binding free energy” value was 0.2 kcal/mol. GATGGCACGTGGTATG was tested, and the “relative binding free energy” value was -0.01 kcal/mol. For TATAGCACGTGTTCGT, the “relative binding free energy” value was -0.1 kcal/mol. In the case of GTTGACACGTGCAGGT, the “relative binding free energy” value is reported as -0.01 kcal/mol. In the case of ATGATCACGTGATGTA, the “relative binding free energy” value is reported as 0.28 kcal/mol. For TAGATCACGTGTAAAT, the “relative binding free energy” value was 0.35 kcal/mol. In the case of AACTGCACGTGTAGGT, the “relative binding free energy” value is reported as 0 kcal/mol. In the case of CGTGGCACGTGAGCGG, the “relative binding free energy” value is reported as 0.11 kcal/mol. For GGTTCCACGTGTTGCG, the “relative binding free energy” value was 0.1 kcal/mol. In the case of GTACTCACGTGGCGGT, the “relative binding free energy” value is reported as 0.15 kcal/mol. ATGATCACGTGGGCTT was tested, and the “relative binding free energy” value was -0.03 kcal/mol. GAGGTCACGTGATGTC was tested, and the “relative binding free energy” value was 0.21 kcal/mol. ATAGACACGTGGTAGG was tested, and the “relative binding free energy” value was -0.11 kcal/mol. For TTGGACACGTGGATGA, the “relative binding free energy” value was 0.12 kcal/mol. For TTGTACACGTGGCGAG, the “relative binding free energy” value was -0.11 kcal/mol. For CTGATCACGTGTTGCT, the “relative binding free energy” value was 0.26 kcal/mol. For TATTGCACGTGAATGT, the “relative binding free energy” value was 0.22 kcal/mol. For TTTCGCACGTGGAATT, the “relative binding free energy” value was 0.03 kcal/mol. In the case of TGAGCCACGTGGATGT, the “relative binding free energy” value is reported as -0.07 kcal/mol. For TGAAGCACGTGGCTTA, the “relative binding free energy” value was -0.02 kcal/mol. For ATGTGCACGTGTAACT, the “relative binding free energy” value was 0.14 kcal/mol. TGTATCACGTGCTGCT was tested, and the “relative binding free energy” value was 0.05 kcal/mol. With GGGGTCACGTGGATCG the “relative binding free energy” value was 0.34 kcal/mol. With GTACTCACGTGTAGGG the “relative binding free energy” value was 0.05 kcal/mol. CTGGGCACGTGTTGCG was tested, and the “relative binding free energy” value was -0.11 kcal/mol. For ATATTCACGTGGTTGC, the “relative binding free energy” value was 0.05 kcal/mol. In the case of AATTCCACGTGATGGT, the “relative binding free energy” value is reported as 0.24 kcal/mol. ATTGGCACGTGCGTGT was tested, and the “relative binding free energy” value was -0.21 kcal/mol. GGAGGCACGTGGAGTA was tested, and the “relative binding free energy” value was -0.08 kcal/mol. GATAGCACGTGAGAGG was tested, and the “relative binding free energy” value was 0.24 kcal/mol. With TGTGGCACGTGCGAGC the “relative binding free energy” value was -0.12 kcal/mol. For GTTAACACGTGTTAGG, the “relative binding free energy” value was 0.15 kcal/mol. With GATGTCACGTGGTACG the “relative binding free energy” value was 0.14 kcal/mol. In the case of TGGAGCACGTGTGAGA, the “relative binding free energy” value is reported as 0.01 kcal/mol. In the case of TGGGTCACGTGGGTTT, the “relative binding free energy” value is reported as 0.11 kcal/mol. AGGCACACGTGGTGTG was tested, and the “relative binding free energy” value was -0.11 kcal/mol. GCGGTCACGTGGGAAG was tested, and the “relative binding free energy” value was 0.12 kcal/mol. In the case of ATGAGCACGTGTCGGT, the “relative binding free energy” value is reported as -0.05 kcal/mol. With TGTAGCACGTGGTACG the “relative binding free energy” value was -0.16 kcal/mol. In the case of GTGAACACGTGGATGA, the “relative binding free energy” value is reported as 0.17 kcal/mol. For GCGGTCACGTGGGTAA, the “relative binding free energy” value was -0.12 kcal/mol. TATGGCACGTGGGCTT was tested, and the “relative binding free energy” value was -0.12 kcal/mol. For TACCGCACGTGGTGTG, the “relative binding free energy” value was -0.24 kcal/mol. With TGGGGCACGTGATCGA the “relative binding free energy” value was -0.07 kcal/mol. In the case of GCTCGCACGTGAGGGG, the “relative binding free energy” value is reported as 0.24 kcal/mol. In the case of GCAGACACGTGTGGGT, the “relative binding free energy” value is reported as 0.11 kcal/mol. For ATGTTCACGTGGTACG, the “relative binding free energy” value was 0.2 kcal/mol. With GAGCTCACGTGTAGTT the “relative binding free energy” value was 0.49 kcal/mol. In the case of GGGCTCACGTGGGCCT, the “relative binding free energy” value is reported as 0.29 kcal/mol. GTAAGCACGTGAGTGG was tested, and the “relative binding free energy” value was 0.15 kcal/mol. For CGGCTCACGTGATAGG, the “relative binding free energy” value was 0.4 kcal/mol. With GTTTGCACGTGACTAT the “relative binding free energy” value was 0.26 kcal/mol. With GGTAGCACGTGGAGCT the “relative binding free energy” value was -0.01 kcal/mol. For TGGCGCACGTGTGGTC, the “relative binding free energy” value was -0.2 kcal/mol. In the case of CGCTGCACGTGTTTGT, the “relative binding free energy” value is reported as -0.04 kcal/mol. In the case of GCGGTCACGTGTGCGT, the “relative binding free energy” value is reported as 0.12 kcal/mol. With AAATTCACGTGTGGGG the “relative binding free energy” value was 0.28 kcal/mol. In the case of GTGATCACGTGGCAGT, the “relative binding free energy” value is reported as 0.09 kcal/mol. For GAAGTCACGTGGGAGA, the “relative binding free energy” value was 0.16 kcal/mol. In the case of AGTGACACGTGTAAAT, the “relative binding free energy” value is reported as 0.15 kcal/mol. With TTGAGCACGTGTTTAA the “relative binding free energy” value was -0.08 kcal/mol. With GAGTGCACGTGGGTTG the “relative binding free energy” value was -0.08 kcal/mol. In the case of ATGTGCACGTGAATAT, the “relative binding free energy” value is reported as 0.08 kcal/mol. With ATTTGCACGTGAATAA the “relative binding free energy” value was 0.36 kcal/mol. With TATTACACGTGGTGGG the “relative binding free energy” value was 0.05 kcal/mol. AGCTGCACGTGTGTAA was tested, and the “relative binding free energy” value was 0.09 kcal/mol. For CATGTCACGTGTTTGA, the “relative binding free energy” value was 0.02 kcal/mol. In the case of AATTGCACGTGATGAG, the “relative binding free energy” value is reported as 0.15 kcal/mol. For ACTTTCACGTGGATAG, the “relative binding free energy” value was 0.33 kcal/mol. With ATGGGCACGTGCGTTG the “relative binding free energy” value was -0.11 kcal/mol. For CGAGGCACGTGTGTCG, the “relative binding free energy” value was -0.02 kcal/mol. With TGATCCACGTGCGGGG the “relative binding free energy” value was 0.02 kcal/mol. AATGGCACGTGGTGAT was tested, and the “relative binding free energy” value was -0.05 kcal/mol. TATTTCACGTGGTCTA was tested, and the “relative binding free energy” value was 0.36 kcal/mol. ATAAACACGTGGGGCT was tested, and the “relative binding free energy” value was -0.16 kcal/mol. In the case of TTGATCACGTGGATTA, the “relative binding free energy” value is reported as 0.03 kcal/mol. TTGGTCACGTGTTATT was tested, and the “relative binding free energy” value was 0.08 kcal/mol. With AGCTTCACGTGTCGTT the “relative binding free energy” value was 0.22 kcal/mol. GAAGCCACGTGATGTT was tested, and the “relative binding free energy” value was 0.24 kcal/mol. With CGGGTCACGTGGAGCA the “relative binding free energy” value was 0.06 kcal/mol. In the case of TTGTACACGTGATCTG, the “relative binding free energy” value is reported as 0.28 kcal/mol.
